The other results are listed elsewhere or left out. The source does not settle which construct or isoform was used.
The sequences below were run against GST-SBP-ILF3 (Homo sapiens) (UniProt Q12906) (assay: targeted RNA Bind-n-Seq). Settings: RBNS binding buffer: 25 mM Tris pH 7.5, 150 mM KCl, 3 mM MgCl2, 0.1% Tween, 0.5 mg/mL BSA, 1 mM DTT; 27 nM protein, 750 pM RNA pool; temperature not stated; high values mean tight binding; sequences stand for … in GGGUAAAAGCGAGGUGAA…CGGGACAAGUAUUAUGGG.
Work on “UUUUUUUUUUGAGAUGGUGUCCAUCUCCUA [tttttgagapaired]” yielded a binding signal (log2 fold change) of 0.388.
For “GUUGGUGGUGUUGGCACCUAACACCGCCGA [gtspaired]”, the binding signal (log2 fold change) was -0.547.
“GGUUGUUGUGUUGGAGCCUAACACAGCAAC [gtspaired]” gave a binding signal (log2 fold change) of -0.256.
With “GUGUGGUGUGUUGGUGCCUAACACAUCGCG [gtspaired]” the binding signal (log2 fold change) was -0.582.
In the case of “UUUUUUUUUUGAGACCGACUCGGUCUCCAG [tttttgagapaired]”, the binding signal (log2 fold change) is reported as 0.388.
Work on “UUUUUUUUUUGAGACCGUUUCGGUCUCCUA [tttttgagapaired]” yielded a binding signal (log2 fold change) of 0.238.
Work on “UUUUUUUUUUGAGAGGGACGCCCUCUCCGG [tttttgagapaired]” yielded a binding signal (log2 fold change) of 0.666.
With “GUGUGUUGUGUUGGUCCCUAACACAACGCA [gtspaired]” the binding signal (log2 fold change) was -0.286.
“UUUUUUUUUUGAGAUGGAGUCCGUCUUCUA [tttttgagapaired]” showed a binding signal (log2 fold change) of 0.34.
With “GGUGUUGGUGUUGGCUUCUAACACCGAUAC [gtspaired]” the binding signal (log2 fold change) was -0.825.
In the case of “GUGUGUGGUGUUGGUAUCUAACACCACGCG [gtspaired]”, the binding signal (log2 fold change) is reported as -0.484.
With “UUUUUUUUUUGAGAUGGAGCCCAUCUCCUG [tttttgagapaired]” the binding signal (log2 fold change) was 0.564.
With “UUUUUUUUUUGAGAUGGCAGCCAUCUCCGG [tttttgagapaired]” the binding signal (log2 fold change) was 0.524.
In the case of “GGUGGUUGUGUUGGUAUCUAACACAAUCGC [gtspaired]”, the binding signal (log2 fold change) is reported as -0.377.
“UUUUUUUUUUGAGAGGGGCUCCCUCUUCUA [tttttgagapaired]” showed a binding signal (log2 fold change) of 0.748.
Work on “UUUUUUUUUUGAGACUGUUCCAGUCUCCUA [tttttgagapaired]” yielded a binding signal (log2 fold change) of 0.0435.
“UUUUUUUUUUGAGAUGGACCCCAUCUCCUG [tttttgagapaired]” was tested, and the binding signal (log2 fold change) was 0.525.
Work on “UUUUUUUUUUGAGAGCGUAACGCUCUUCUG [tttttgagapaired]” yielded a binding signal (log2 fold change) of 0.164.
“GUGGUUGGUGUUGGAUUCUAACACCGACUA [gtspaired]” showed a binding signal (log2 fold change) of -0.372.
“GGUGGUGGUGUUGGCCUCUAACACCGCUAC [gtspaired]” was tested, and the binding signal (log2 fold change) was -0.72.
Work on “GUGUGUGGUGUUGGACCCUAACACCACAUA [gtspaired]” yielded a binding signal (log2 fold change) of -0.495.
For “GUGUGUUGUGUUGGCCUCUAACACAACACG [gtspaired]”, the binding signal (log2 fold change) was -0.467.
“GUGUGGUGUGUUGGCAUCUAACACAUCGCA [gtspaired]” was tested, and the binding signal (log2 fold change) was -0.713.
Work on “UUUUUUUUUUGAGAUGGUGACCAUCUUCUG [tttttgagapaired]” yielded a binding signal (log2 fold change) of 0.343.
In the case of “GUUGGUGGUGUUGGCGCCUAACACCAUCAA [gtspaired]”, the binding signal (log2 fold change) is reported as -0.176.
“UUUUUUUUUUGAGAACGUAACGUUCUCCUA [tttttgagapaired]” gave a binding signal (log2 fold change) of 0.0581.
“UUUUUUUUUUGAGACGGGAGCUGUCUUCUA [tttttgagapaired]” was tested, and the binding signal (log2 fold change) was 0.653.
With “GUGUGUUGUGUUGGAUCCUAACACAGCACA [gtspaired]” the binding signal (log2 fold change) was -0.54.
With “GUGUGUGGUGUUGGAUCCUAACACCGCACG [gtspaired]” the binding signal (log2 fold change) was -0.484.
“UUUUUUUUUUGAGAGCGGUGCGCUCUCCUG [tttttgagapaired]” was tested, and the binding signal (log2 fold change) was 0.672.
In the case of “UUUUUUUUUUGAGACUGUGGCAGUCUCCUA [tttttgagapaired]”, the binding signal (log2 fold change) is reported as 0.668.
Sequence “GUGUGGUGUGUUGGCUCCUAACACACCGCG [gtspaired]” has a binding signal (log2 fold change) of -0.703.
Work on “UUUUUUUUUUGAGAUGGCAACUAUCUCCGG [tttttgagapaired]” yielded a binding signal (log2 fold change) of 0.344.
With “UUCCUCUCUCCUCCGUGGGAGGGGGGAGGA [ctspaired]” the binding signal (log2 fold change) was -0.239.
“GUGUGUUGUGUUGGAGUCUAACACAACGCG [gtspaired]” gave a binding signal (log2 fold change) of -0.691.
For “GGUUGUGGUGUUGGAGUCUAACACCGCAGC [gtspaired]”, the binding signal (log2 fold change) was -0.518.
Sequence “UUUUUUUUUUGAGACCGAACCGGUCUCCGG [tttttgagapaired]” has a binding signal (log2 fold change) of 0.44.
In the case of “UUUUUUUUUUGAGACGGACGCCGUCUCCGG [tttttgagapaired]”, the binding signal (log2 fold change) is reported as 0.597.
In the case of “UUUUUUUUUUGAGACGGAAUCUGUCUCCUA [tttttgagapaired]”, the binding signal (log2 fold change) is reported as 0.47.
For “UUUUUUUUUUGAGACUGAGUCAGUCUCCUG [tttttgagapaired]”, the binding signal (log2 fold change) was 0.643.
For “UUUUUUUUUUGAGAGUGAUGCACUCUCCGG [tttttgagapaired]”, the binding signal (log2 fold change) was 0.168.
With “UUUUUUUUUUGAGACCGGGACGGUUUCCAG [tttttgagapaired]” the binding signal (log2 fold change) was 0.598.
Work on “UUUUUUUUUUGAGACGGCUGCCGUCUUCUG [tttttgagapaired]” yielded a binding signal (log2 fold change) of 0.898.
Work on “UUUUUUUUUUGAGACUGUAGCAGUCUCCGG [tttttgagapaired]” yielded a binding signal (log2 fold change) of 0.625.
With “GUGUGUUGUGUUGGCUCCUAACACAGCACA [gtspaired]” the binding signal (log2 fold change) was -0.483.
With “UUUUUUUUUUGAGACGGAGCCCGUCUCCGG [tttttgagapaired]” the binding signal (log2 fold change) was 0.548.
For “GGUGUGUGUGUUGGACCCUAACACAUAUAC [gtspaired]”, the binding signal (log2 fold change) was -0.333.
For “UUUUUUUUUUGAGAGCGAGCCGCUCUCCUA [tttttgagapaired]”, the binding signal (log2 fold change) was 0.278.
With “GUGUGGUGUGUUGGCAUCUAACACAUCACA [gtspaired]” the binding signal (log2 fold change) was -0.636.
For “UUUUUUUUUUGAGAGCGUAACGCUCUCCUG [tttttgagapaired]”, the binding signal (log2 fold change) was 0.0155.
For “UUUUUUUUUUGAGACUGCGUCAGUCUCCUA [tttttgagapaired]”, the binding signal (log2 fold change) was 0.537.
“UUUUUUUUUUGAGAGGGGUGCCCUCUCCUA [tttttgagapaired]” was tested, and the binding signal (log2 fold change) was 0.675.
For “UUUUUUUUUUGAGACGGGCGCCGUCUUCUA [tttttgagapaired]”, the binding signal (log2 fold change) was 0.734.
Work on “UUUUUUUUUUGAGAGUGAUCCACUCUCCUG [tttttgagapaired]” yielded a binding signal (log2 fold change) of -0.0865.
Sequence “UUUUUUUUUUGAGAUGGAUACCAUCUCCUG [tttttgagapaired]” has a binding signal (log2 fold change) of 0.33.
Sequence “GUGUGUUGUGUUGGCUUCUAACACAGCGCG [gtspaired]” has a binding signal (log2 fold change) of -0.735.
“UUUUUUUUUUGAGAUCGGCGCGAUCUCCUA [tttttgagapaired]” was tested, and the binding signal (log2 fold change) was 0.549.
In the case of “UUUUUUUUUUGAGAGCGUGGCGCUCUUCUG [tttttgagapaired]”, the binding signal (log2 fold change) is reported as 0.516.
With “UUUUUUUUUUGAGACGGCGGCCGUCUCCUG [tttttgagapaired]” the binding signal (log2 fold change) was 1.09.
With “UUUUUUUUUUGAGAGGGGGCCCCUCUCCAG [tttttgagapaired]” the binding signal (log2 fold change) was 1.3.
“UUUUUUUUUUGAGAAGGGGUCCUUCUCCGG [tttttgagapaired]” gave a binding signal (log2 fold change) of 0.271.
“UUUUUUUUUUGAGAGGGGUACCCUCUCCUA [tttttgagapaired]” showed a binding signal (log2 fold change) of 0.157.
“GUGGUGUGUGUUGGACUCUAACACACAUCA [gtspaired]” showed a binding signal (log2 fold change) of -0.207.
For “GUGGUUGGUGUUGGCGUCUAACACCAGCCG [gtspaired]”, the binding signal (log2 fold change) was -0.686.
“GUGUGUGGUGUUGGCCCCUAACACCACGCG [gtspaired]” gave a binding signal (log2 fold change) of -0.457.
Sequence “UUUUUUUUUUGAGACCGAGUCGGUCUUCUA [tttttgagapaired]” has a binding signal (log2 fold change) of 0.729.
For “UUUUUUUUUUGAGACCGAAACGGUCUCCGG [tttttgagapaired]”, the binding signal (log2 fold change) was 0.473.
Sequence “UUUUUUUUUUGAGACGGCGACCGUUUCCUG [tttttgagapaired]” has a binding signal (log2 fold change) of 0.778.
Sequence “UUUUUUUUUUGAGAGGGCAACCCUCUUCUG [tttttgagapaired]” has a binding signal (log2 fold change) of 0.167.
With “UUUUUUUUUUGAGAUGGAUGCCAUCUCCAG [tttttgagapaired]” the binding signal (log2 fold change) was 0.31.
Sequence “UUUUUUUUUUGAGAGCGUAACGCUCUUCUA [tttttgagapaired]” has a binding signal (log2 fold change) of 0.425.
“UUUUUUUUUUGAGAGCGUGACGCUCUCCAG [tttttgagapaired]” showed a binding signal (log2 fold change) of 0.374.
With “GUGUGUUGUGUUGGCGCCUAACACAGCGCA [gtspaired]” the binding signal (log2 fold change) was -0.576.
For “UUUUUUUUUUGAGAGCGAGGCGUUCUCCAG [tttttgagapaired]”, the binding signal (log2 fold change) was 0.42.
“UUUUUUUUUUGAGAUCGGGACGAUCUCCAG [tttttgagapaired]” gave a binding signal (log2 fold change) of -0.0116.
“UUUUUUUUUUGAGACGGACACCGUCUCCGG [tttttgagapaired]” gave a binding signal (log2 fold change) of 0.513.
“UUUUUUUUUUGAGAGUGUGGCAUUCUCCGG [tttttgagapaired]” was tested, and the binding signal (log2 fold change) was 0.478.
Sequence “GUGUUGUGUGUUGGAGUCUAACACACAGCG [gtspaired]” has a binding signal (log2 fold change) of -0.706.
“UUCUUCUCUCCUCCACUGGAGGGGGGAAGA [ctspaired]” showed a binding signal (log2 fold change) of -0.358.
“UUUUUUUUUUGAGAGGGGAACCCUCUCCUG [tttttgagapaired]” was tested, and the binding signal (log2 fold change) was 0.255.
With “UUUUUUUUUUGAGACUGUCUCAGUCUCCAG [tttttgagapaired]” the binding signal (log2 fold change) was 0.348.
“GUGUGUGGUGUUGGUCUCUAACACCACGCG [gtspaired]” gave a binding signal (log2 fold change) of -0.81.
“GUUGUGUGUGUUGGUGCCUAACACACACGA [gtspaired]” gave a binding signal (log2 fold change) of -0.173.
With “UUUUUUUUUUGAGAGCGUACCGUUCUCCGG [tttttgagapaired]” the binding signal (log2 fold change) was 0.639.
With “GGUGUGUGUGUUGGUGUCUAACACACGCGC [gtspaired]” the binding signal (log2 fold change) was -0.761.
Work on “GUGUGUGGUGUUGGCUCCUAACACCGCGCG [gtspaired]” yielded a binding signal (log2 fold change) of -0.645.
“GUGUGGUGUGUUGGCAUCUAACACAUCGCG [gtspaired]” gave a binding signal (log2 fold change) of -0.793.
“UUUUUUUUUUGAGACGGGAACUGUCUCCUG [tttttgagapaired]” was tested, and the binding signal (log2 fold change) was 0.795.
“GUGUGGUGUGUUGGUGCCUAACACAUCGCA [gtspaired]” showed a binding signal (log2 fold change) of -0.763.
Sequence “UUUUUUUUUUGAGAAGGGACCCUUCUCCAG [tttttgagapaired]” has a binding signal (log2 fold change) of -0.0508.
“UUUUUUUUUUGAGAACGAUGUAAUAAAAAA [ttttgagaunpaired]” showed a binding signal (log2 fold change) of 0.0917.
In the case of “UUUUUUUUUUGAGAGGGAACCCCUCUCCAG [tttttgagapaired]”, the binding signal (log2 fold change) is reported as 0.0691.
With “UUCUCUCUUCCUCCGCCGGAGGGAGAGGGA [ctspaired]” the binding signal (log2 fold change) was -0.222.
“UUUUUUUUUUGAGACCGAUCCGGUUUCCUA [tttttgagapaired]” was tested, and the binding signal (log2 fold change) was 0.282.
“GUGUGGUGUGUUGGAUUCUAACACAUCACA [gtspaired]” gave a binding signal (log2 fold change) of -0.231.
“GGUGUGUGUGUUGGAGCCUAACACAUAUAC [gtspaired]” was tested, and the binding signal (log2 fold change) was -0.537.
Sequence “GGUGUGUGUGUUGGCGUCUAACACAUACAC [gtspaired]” has a binding signal (log2 fold change) of -0.341.
With “UUCUCUCUUCCUCCAAUGGAGGGAGGGAGA [ctspaired]” the binding signal (log2 fold change) was -0.39.
Sequence “GGUGGUUGUGUUGGCUUCUAACACAGCUAC [gtspaired]” has a binding signal (log2 fold change) of -0.675.
Work on “UUUUUUUUUUGAGACUGAUGCAGUCUUCUA [tttttgagapaired]” yielded a binding signal (log2 fold change) of 0.445.
Sequence “GUGGUGUGUGUUGGAACCUAACACAUACUA [gtspaired]” has a binding signal (log2 fold change) of -0.687.
Work on “GUGGUGUGUGUUGGCCUCUAACACACAUCG [gtspaired]” yielded a binding signal (log2 fold change) of -0.649.
“UUUUUUUUUUGAGACUGCUACAGUCUCCAG [tttttgagapaired]” gave a binding signal (log2 fold change) of 0.302.
